Assay results published in paper PMC6515335.
These are yes or no findings as the source states them, for the method shown. For part of these data: In cells and extracts the contact can be indirect. Some binding calls cover weakened binding; strength is not graded here. For part of these data: Where a sequence is shown, tags or fusion partners need not be part of it.

By UniProt entry, the sequences of proteins in these tests, tags left out.
UniProt Q9UK32: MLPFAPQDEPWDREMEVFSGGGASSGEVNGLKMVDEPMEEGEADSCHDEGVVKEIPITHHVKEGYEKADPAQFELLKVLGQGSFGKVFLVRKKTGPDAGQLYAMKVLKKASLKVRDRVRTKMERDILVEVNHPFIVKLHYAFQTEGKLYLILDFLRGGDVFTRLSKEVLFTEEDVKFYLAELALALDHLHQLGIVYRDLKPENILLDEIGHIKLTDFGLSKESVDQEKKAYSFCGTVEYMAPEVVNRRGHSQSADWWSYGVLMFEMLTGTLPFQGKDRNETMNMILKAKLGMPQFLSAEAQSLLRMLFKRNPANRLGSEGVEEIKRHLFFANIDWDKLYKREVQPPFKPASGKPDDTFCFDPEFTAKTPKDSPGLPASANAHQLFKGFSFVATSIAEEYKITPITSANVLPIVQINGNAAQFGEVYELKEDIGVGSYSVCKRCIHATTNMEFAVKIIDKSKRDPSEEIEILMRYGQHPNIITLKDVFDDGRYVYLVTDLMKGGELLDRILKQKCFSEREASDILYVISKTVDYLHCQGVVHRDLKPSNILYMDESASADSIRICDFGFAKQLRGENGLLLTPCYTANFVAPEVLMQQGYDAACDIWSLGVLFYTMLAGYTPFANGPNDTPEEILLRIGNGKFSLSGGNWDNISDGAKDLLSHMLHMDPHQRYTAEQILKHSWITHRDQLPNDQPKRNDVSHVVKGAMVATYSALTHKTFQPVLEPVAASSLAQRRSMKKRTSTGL
UniProt P51812: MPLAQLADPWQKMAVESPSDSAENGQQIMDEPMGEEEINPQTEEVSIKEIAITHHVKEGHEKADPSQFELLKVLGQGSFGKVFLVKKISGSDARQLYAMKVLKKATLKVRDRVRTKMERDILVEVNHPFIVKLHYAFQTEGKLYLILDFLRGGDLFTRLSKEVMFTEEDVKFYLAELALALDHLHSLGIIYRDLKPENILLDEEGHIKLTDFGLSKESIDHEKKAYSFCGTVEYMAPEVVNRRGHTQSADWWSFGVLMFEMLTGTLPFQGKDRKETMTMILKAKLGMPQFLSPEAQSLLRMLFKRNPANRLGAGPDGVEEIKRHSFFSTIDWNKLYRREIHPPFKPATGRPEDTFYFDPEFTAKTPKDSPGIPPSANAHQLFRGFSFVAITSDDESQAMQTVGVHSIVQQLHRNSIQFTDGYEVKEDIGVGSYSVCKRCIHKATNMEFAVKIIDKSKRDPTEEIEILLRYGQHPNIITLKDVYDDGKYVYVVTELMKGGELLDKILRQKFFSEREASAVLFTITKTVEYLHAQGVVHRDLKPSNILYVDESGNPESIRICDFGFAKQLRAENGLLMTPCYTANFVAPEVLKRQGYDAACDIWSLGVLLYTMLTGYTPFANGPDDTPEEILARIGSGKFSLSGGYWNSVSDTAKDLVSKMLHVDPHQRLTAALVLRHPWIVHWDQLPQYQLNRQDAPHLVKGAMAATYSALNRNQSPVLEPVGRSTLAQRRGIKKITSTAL
UniProt Q15418: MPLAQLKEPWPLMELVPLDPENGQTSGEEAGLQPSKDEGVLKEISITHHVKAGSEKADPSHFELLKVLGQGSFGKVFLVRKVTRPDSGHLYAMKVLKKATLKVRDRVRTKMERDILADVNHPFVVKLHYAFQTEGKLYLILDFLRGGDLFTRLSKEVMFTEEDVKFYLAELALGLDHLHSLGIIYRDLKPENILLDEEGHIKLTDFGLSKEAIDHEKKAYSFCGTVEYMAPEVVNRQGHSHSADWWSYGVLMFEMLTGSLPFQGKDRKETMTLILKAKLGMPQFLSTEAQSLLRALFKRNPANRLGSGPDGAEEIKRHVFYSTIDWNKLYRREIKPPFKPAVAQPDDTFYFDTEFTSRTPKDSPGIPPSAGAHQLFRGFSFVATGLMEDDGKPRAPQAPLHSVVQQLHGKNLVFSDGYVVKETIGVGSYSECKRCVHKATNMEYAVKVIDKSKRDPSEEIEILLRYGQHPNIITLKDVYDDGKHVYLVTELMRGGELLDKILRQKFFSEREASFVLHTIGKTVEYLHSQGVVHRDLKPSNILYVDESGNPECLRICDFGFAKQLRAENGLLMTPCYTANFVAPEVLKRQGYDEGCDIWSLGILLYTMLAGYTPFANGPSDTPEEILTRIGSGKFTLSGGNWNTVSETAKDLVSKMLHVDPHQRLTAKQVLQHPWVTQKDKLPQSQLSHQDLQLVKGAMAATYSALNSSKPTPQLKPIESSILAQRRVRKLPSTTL
UniProt Q15349: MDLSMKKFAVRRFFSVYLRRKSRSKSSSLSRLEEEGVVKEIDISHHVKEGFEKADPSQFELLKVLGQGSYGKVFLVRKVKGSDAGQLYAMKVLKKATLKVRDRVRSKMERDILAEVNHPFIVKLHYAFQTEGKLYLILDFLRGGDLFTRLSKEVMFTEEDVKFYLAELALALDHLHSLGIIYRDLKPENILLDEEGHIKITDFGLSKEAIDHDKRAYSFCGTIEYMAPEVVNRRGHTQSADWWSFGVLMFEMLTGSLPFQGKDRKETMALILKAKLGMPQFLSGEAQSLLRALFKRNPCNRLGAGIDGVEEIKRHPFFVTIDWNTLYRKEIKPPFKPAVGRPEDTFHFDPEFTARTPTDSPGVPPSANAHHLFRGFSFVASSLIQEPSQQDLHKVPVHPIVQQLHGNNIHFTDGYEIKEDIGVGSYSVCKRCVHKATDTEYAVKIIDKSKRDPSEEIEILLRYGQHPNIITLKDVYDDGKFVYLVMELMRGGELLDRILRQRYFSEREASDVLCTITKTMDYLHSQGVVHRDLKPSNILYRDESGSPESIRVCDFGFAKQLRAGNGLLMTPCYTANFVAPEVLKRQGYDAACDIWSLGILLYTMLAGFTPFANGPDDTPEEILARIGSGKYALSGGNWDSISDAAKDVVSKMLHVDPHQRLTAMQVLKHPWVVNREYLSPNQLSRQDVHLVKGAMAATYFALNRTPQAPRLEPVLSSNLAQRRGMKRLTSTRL

Tests used:
pACT-VP16-ELK3-FL = target: T1, pACT-VP16-ELK3-FL (UniProt P41970); experiment: co-IP; RSK2 deletion mutants co-expressed with full-length VP16-ELK3 in HEK293T; ELK3 immunoprecipitated with VP-16 tag antibody, RSK2 detected with His-tag antibody
T1 sequence: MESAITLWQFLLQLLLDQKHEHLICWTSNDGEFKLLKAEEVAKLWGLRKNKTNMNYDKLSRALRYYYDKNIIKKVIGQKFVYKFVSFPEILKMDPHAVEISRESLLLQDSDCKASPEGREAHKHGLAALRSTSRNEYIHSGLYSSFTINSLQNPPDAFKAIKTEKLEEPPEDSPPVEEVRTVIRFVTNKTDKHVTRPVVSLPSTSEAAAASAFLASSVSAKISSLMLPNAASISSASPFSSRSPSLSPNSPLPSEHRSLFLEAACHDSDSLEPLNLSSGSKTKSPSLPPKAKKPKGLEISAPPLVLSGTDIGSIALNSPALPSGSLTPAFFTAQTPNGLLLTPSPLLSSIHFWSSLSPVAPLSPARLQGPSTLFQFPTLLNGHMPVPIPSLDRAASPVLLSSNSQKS

His-ELK3-D4 = target: T2, His-ELK3-D4 (UniProt P41970); experiment: pull-down; bacterially expressed His-ELK3 proteins coupled with Ni-IDA resin, incubated at 4 °C for 30 min with 400 μg lysate of HEK293T cells expressing Myc-RSK2 in 150 mM NaCl, 40 mM Tris pH 8.0, 0.5% NP-40; western blotting with Myc and RSK2 antibodies; only the target purified
T2 sequence: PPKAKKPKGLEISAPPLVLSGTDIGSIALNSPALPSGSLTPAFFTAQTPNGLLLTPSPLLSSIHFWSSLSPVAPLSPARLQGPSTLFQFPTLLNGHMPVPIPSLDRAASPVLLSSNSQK

pBIND-RSK4 = pBIND-RSK4 (UniProt Q9UK32); experiment: two-hybrid; mammalian two-hybrid (Promega Checkmate) in HEK293T cells; pBIND-RSK as bait, pACT-transcription factor, pG5-luciferase at the same molar ratio; firefly luciferase normalized to Renilla
[1] = target: pBIND-RSK2 (ribosomal S6 kinase 2 fused to the Gal4 DNA-binding domain) (UniProt P51812); experiment: as above
pBIND-RSK1 = pBIND-RSK1 (UniProt Q15418); experiment: as above
pBIND-RSK3 = pBIND-RSK3 (UniProt Q15349); experiment: as above
[2] = target: pBIND-RSK2 (ribosomal S6 kinase 2 fused to the Gal4 DNA-binding domain) (UniProt P51812); experiment: co-IP; pBIND-RSK2 and each pcDNA4-HisMax-ELK co-expressed in HEK293T; NP-40 lysis buffer, protein G beads, western blotting; the precipitating antibody is not given
[3] = target: RSK2-FL (His- and Xpress-tagged full-length RSK2) (UniProt P51812); experiment: co-IP; VP16-ELK3 deletion mutants co-expressed with full-length RSK2 in HEK293T; RSK2 immunoprecipitated with Xpress tag antibody, ELK3 detected with VP-16 tag antibody

RSK2-FL (His- and Xpress-tagged full-length RSK2) (from UniProt P51812 1-740) (enzyme)
binding (pACT-VP16-ELK3-FL): binds

Myc-RSK2 (from UniProt P51812 1-740) (enzyme)
binding (His-ELK3-D4): binds

B1: pACT-ELK1 (protein, UniProt P19419 1-428)
chain: MDPSVTLWQFLLQLLREQGNGHIISWTSRDGGEFKLVDAEEVARLWGLRKNKTNMNYDKLSRALRYYYDKNIIRKVSGQKFVYKFVSYPEVAGCSTEDCPPQPEVSVTSTMPNVAPAAIHAAPGDTVSGKPGTPKGAGMAGPGGLARSSRNEYMRSGLYSTFTIQSLQPQPPPHPRPAVVLPSAAPAGAAAPPSGSRSTSPSPLEACLEAEEAGLPLQVILTPPEAPNLKSEELNVEPGLGRALPPEVKVEGPKEELEVAGERGFVPETTKAEPEVPPQEGVPARLPAVVMDTAGQAGGHAASSPEISQPQKGRKPRDLELPLSPSLLGGPGPERTPGSGSGSGLQAPGPALTPSLLPTHTLTPVLLTPSSLPPSIHFWSTLSPIAPRSPAKLSFQFPSSGSAQVHIPSISVDGLSTPVVLSPGPQKP
binding (pBIND-RSK4): binds weakly | binding [1]: binds | binding (pBIND-RSK1): binds | binding (pBIND-RSK3): binds weakly

B2: pACT-VP16-ELK3-FL (protein, UniProt P41970 1-407)
chain: T1 sequence
binding (pBIND-RSK4): binds weakly | binding [1]: binds | binding (pBIND-RSK1): binds | binding (pBIND-RSK3): binds weakly

B3: pACT-ELK4 (protein, UniProt P28324 1-431)
chain: MDSAITLWQFLLQLLQKPQNKHMICWTSNDGQFKLLQAEEVARLWGIRKNKPNMNYDKLSRALRYYYVKNIIKKVNGQKFVYKFVSYPEILNMDPMTVGRIEGDCESLNFSEVSSSSKDVENGGKDKPPQPGAKTSSRNDYIHSGLYSSFTLNSLNSSNVKLFKLIKTENPAEKLAEKKSPQEPTPSVIKFVTTPSKKPPVEPVAATISIGPSISPSSEETIQALETLVSPKLPSLEAPTSASNVMTAFATTPPISSIPPLQEPPRTPSPPLSSHPDIDTDIDSVASQPMELPENLSLEPKDQDSVLLEKDKVNNSSRSKKPKGLELAPTLVITSSDPSPLGILSPSLPTASLTPAFFSQTPIILTPSPLLSSIHFWSTLSPVAPLSPARLQGANTLFQFPSVLNSHGPFTLSGLDGPSTPGPFSPDLQKT
binding (pBIND-RSK4): binds weakly | binding [1]: binds | binding (pBIND-RSK1): binds | binding (pBIND-RSK3): binds weakly

B4: pcDNA4-HisMax-ELK3 (protein, UniProt P41970 1-407)
chain: T1 sequence
binding [2]: binds

B5: pcDNA4-HisMax-ELK4 (protein, UniProt P28324 1-431)
chain: B3 chain
binding [2]: binds

B6: pcDNA4-HisMax-ELK1 (protein, UniProt P19419 1-428)
chain: B1 chain
binding [2]: binds weakly

B7: pACT-VP16-ELK3-D4 (domain or fragment, UniProt P41970 288-406)
chain: T2 sequence
binding [3]: binds

B8: pACT-VP16-ELK3-D1 (domain or fragment, UniProt P41970 1-92)
chain: MESAITLWQFLLQLLLDQKHEHLICWTSNDGEFKLLKAEEVAKLWGLRKNKTNMNYDKLSRALRYYYDKNIIKKVIGQKFVYKFVSFPEILK
binding [3]: no binding

B9: pACT-VP16-ELK3-D2 (domain or fragment, UniProt P41970 93-209)
chain: MDPHAVEISRESLLLQDSDCKASPEGREAHKHGLAALRSTSRNEYIHSGLYSSFTINSLQNPPDAFKAIKTEKLEEPPEDSPPVEEVRTVIRFVTNKTDKHVTRPVVSLPSTSEAAA
binding [3]: no binding

B10: pACT-VP16-ELK3-D3 (domain or fragment, UniProt P41970 211-287)
chain: SAFLASSVSAKISSLMLPNAASISSASPFSSRSPSLSPNSPLPSEHRSLFLEAACHDSDSLEPLNLSSGSKTKSPSL
binding [3]: no binding
